Some of the results follow. Many values rest on one well or one pass, so single values are uncertain.

The test system of this assay is Candida albicans DPL-15. The assay can be described thus: growth (OD600) after compound treatment (apparently relative to screen median) (relative growth (fraction; screen median 1.02)); DPL-15 is a caspofungin-resistant clinical isolate; higher = more fungal growth (less antifungal activity). The note with it: 25 µM; RPMI 1640; 48 h; 30 °C.
`Cc1ccc(C2NC(=O)c3nn(-c4ccccc4)c(CC(C)C)c32)cc1` (stereo unspecified): the growth stood at 1.04.

As for `COc1c(C)c(C)c(C(=O)O)c(OC/C=C/c2ccccc2)c1C`, the growth was 0.928.

On to `CC(C)(C)c1ccc(C#C[C@@H]2C=C[C@H]3OC(=O)CC/C=C/CCC(=O)OC[C@H]3O2)cc1`, for which the growth stood at 1.1.

On to `COC(=O)[C@]1([C@@H]2CCC(=O)O2)CC(=O)c2c(O)c(Br)c(C)c(-c3c(C)c(Br)c(O)c4c3O[C@@](C(=O)OC)([C@@H]3CCC(=O)O3)CC4=O)c2O1`, for which the growth turned out to be 1.06.

With `OC(COc1ccccc1)Cn1nnc(-c2ccccc2)c1C#Cc1ccccc1` (stereo unspecified), the growth is 1.17.

For `COc1ccccc1Cn1nc2c(c1CC(C)C)C(c1ccc(F)cc1)NC2=O` (stereo unspecified), the growth worked out at 0.824.

Take `O=C1CC2(CCCCC2)CNC(=O)c2cccc(c2)-c2[nH]ncc2CCCCCCN1`: the growth amounted to 0.982.

Take `COC(=O)C1=C(C)N(CC#C[Si](C)(C)C)C(=O)N(C(C)=O)C1c1ccccc1` (stereo unspecified): the growth came out at 1.15.

Turning to `COCOC1CCC(=O)C(C(=O)OC)=C1I` (stereo unspecified), the growth worked out at 0.984.

Take `CCCN1C(=S)NC(c2cccc(OC)c2)C(C(C)=O)=C1C` (stereo unspecified): the growth is 1.

As to `COc1ccc([C@@H]2[C@@H](C(=O)NCC3CC3)[C@H](C(=O)NCC3CC3)[C@H]2c2ccc(OC)c(OC)c2)cc1OC`, the growth stood at 1.11.

For `COC(=O)[C@]1([C@H]2C=CC(=O)O2)CC(=O)c2c(O)cccc2O1`, the growth amounted to 1.04.

Turning to `COC(=O)C1=C(C)N(CCCOC(C)C)C(NCC2CCCCC2)=NC1c1ccccc1` (stereo unspecified), the growth was 1.15.

Consider `COc1ccc(N2C(=O)C3=C(C(CC(C)C)=NCCN3C)C2c2ccc(F)cc2)cc1` (stereo unspecified), for which the growth was determined as 1.01.

As for `Cc1nnc(C)c2c1CCOC[C@@H](c1ccccc1)NC(=O)[C@@H]1C[C@@H](O)CN1C(=O)c1cccc-2n1`, the growth came out at 1.03.

Turning to `COc1ccccc1C1c2c(CC(C)C)n[nH]c2C(=O)N1c1ccc2c(c1)OCO2` (stereo unspecified), the growth was 1.07.

For the compound `Nc1c(-c2ccccc2)cnc2c(-c3ccccc3)cnn12`, the growth is 0.922.

For the compound `COCCN1C(=O)c2[nH]nc(CC(C)C)c2C1c1ccc(F)cc1` (stereo unspecified), the growth turned out to be 0.977.

Turning to `CC(=O)OC[C@H]1O[C@H](c2ccc(Cl)cc2)C=C[C@@H]1OC(C)=O`, the growth is 1.12.

`C#CCOCCOCCNC(=O)CC1(CNC(=O)c2cccc(/C=N/NS(=O)(=O)c3ccc(C)cc3)c2)CCCCC1`: the growth was determined as 1.

Consider `CCN1C(=S)NC(c2ccc(OC)cc2)C(C(=O)OC)=C1C` (stereo unspecified), for which the growth was 1.06.

For `CC(=O)C1=C2C=CCCN2C(=O)NC1c1cc(F)cc(Br)c1` (stereo unspecified), the growth worked out at 1.01.

Take `C=CCN1C(=O)C2=C(C(C)=NCCN2C)C1c1ccc(F)cc1` (stereo unspecified): the growth was 1.09.

As for `CC(C)Cc1n[nH]c2c1C(c1ccsc1)N(c1ccc(C(C)(C)C)cc1)C2=O` (stereo unspecified), the growth is 0.847.

Regarding `COc1ccc(OC)c(CNC(=O)C2=CCCN(CCc3ccccc3C)C2)c1`, the growth was 1.11.

As for `O=C1NC2(Nc3ccccc31)C(=O)Nc1ccccc12` (stereo unspecified), the growth worked out at 1.09.

For the compound `COC(=O)C/C=C/[C@H](C)[C@@H](NC(=O)[C@H]1CCCN1C(=O)OC(C)(C)C)c1ccccc1`, the growth was 1.05.

As for `C[C@H]1/C=C/CC(=O)OCCCC(=O)N2CCC[C@@H]2C(=O)N[C@H]1c1ccc(Br)cc1`, the growth turned out to be 0.985.

As for `CC1=C[C@@H](COc2cccc(F)c2)O[C@@]2(C1)C(=O)N(Cc1ccccc1)c1ccccc12`, the growth came out at 0.935.

Take `C=CC[C@@]12Oc3c(OC)cc(OC)cc3O[C@@]1(c1ccc(OC)cc1)[C@H](c1ccccc1)[C@@H](C(=O)OC)C2=O`: the growth was 1.06.

In the case of `COCCN1Cc2cc(C(=O)OC)c3c(c2C1=O)c1ccccc1n3S(=O)(=O)c1ccc(OC)cc1`, the growth is 1.1.

Consider `COCOc1cc(OC)cc(O)c1C(=O)/C=C/c1cccnc1`, for which the growth was found to be 1.12.

On to `COC(=O)C/C=C/[C@H](C)[C@@H](NC(=O)CNC(=O)OC(C)(C)C)c1ccccc1`, for which the growth was 1.1.

For `COc1cccc(C2NC(=S)NC(C)=C2C(C)=O)c1` (stereo unspecified), the growth came out at 0.958.

For `COc1ccc2c(c1)C(Br)=C(CCCO)C2c1ccccc1` (stereo unspecified), the growth came out at 0.999.

As to `C=CC[C@@]1(O)C=CC(=O)[C@H]2[C@@H]1[C@H]1c3ccccc3[C@]2([C@@H](C)OC)c2ccccc21`, the growth is 1.18.

Consider `CCc1cc2c(nc1CC)CCCN2S(=O)(=O)c1ccc(F)cc1`, for which the growth worked out at 0.944.

As for `COC(=O)C1=C(C(=O)OC)[C@@H](c2ccccc2)O[C@H]1c1ccco1`, the growth amounted to 1.07.

Take `CC1=C[C@H](COc2ccc(Br)cc2)O[C@]2(C1)C(=O)N(C)c1ccccc12`: the growth came out at 1.01.

As for `CC(C)Cc1c2c(nn1Cc1ccccc1)C(=O)NC2c1ccc(Br)cc1` (stereo unspecified), the growth is 1.02.

As to `CCN1C(=S)NC(c2ccc(Cl)cc2)C(C(=O)OC)=C1C` (stereo unspecified), the growth was determined as 1.09.

In the case of `COc1ccc(Cn2nc(-c3ccccc3)cc2Nc2cc(O)cc(O)c2C(=O)N(C)Cc2ccncc2)cc1`, the growth is 1.01.

As to `O=C1NC(c2ccc(F)cc2)C2=C1NCCN=C2c1ccccc1` (stereo unspecified), the growth stood at 1.08.

As to `O=C(c1c(O)cc(O)cc1Nc1ccnn1Cc1ccoc1)N1Cc2cccnc2C1`, the growth amounted to 1.04.

On to `CC(C)(C)OC(=O)N(CCCc1ccccc1)S(=O)(=O)Nc1ccc(C(F)(F)F)cc1`, for which the growth stood at 1.13.

Take `CC(=O)C1=C(C)N(Cc2ccccc2)C(=S)NC1c1cccc(Cl)c1` (stereo unspecified): the growth was 0.899.

Take `COc1ccc(/C=C/[C@H]2c3ccccc3O[C@]3(c4ccc(OC)cc4)Oc4ccccc4C[C@H]23)cc1`: the growth amounted to 1.03.

As to `COC(=O)C1=C(C(=O)OC)[C@@H](c2cccs2)O[C@@H]1c1ccccc1`, the growth came out at 1.19.

Consider `CC1=C[C@H](COc2ccc(C(C)(C)C)cc2)O[C@]2(C1)C(=O)Nc1ccccc12`, for which the growth came out at 0.944.

Turning to `C=CC[C@@H]1[C@H]2[C@H]3c4ccccc4[C@]([C@@H](C)OC)(c4ccccc43)[C@H]2C(=O)N1C(=O)OC(C)(C)C`, the growth stood at 1.03.

Consider `O=c1c(O)c(-c2ccccc2OCc2ccccc2Br)oc2ccccc12`, for which the growth stood at 0.975.

As to `O=C(Cc1cc(O)cc(O)c1C(=O)N1Cc2ccccc2C1)C1CC1`, the growth worked out at 0.988.

On to `CCn1cc(Nc2cc(O)cc(O)c2C(=O)N2Cc3ccccc3C2)cn1`, for which the growth came to 1.22.

`COc1cc(OC)c2c(=O)c3ccc(OC)c(OCC=C(C)C)c3oc2c1`: the growth stood at 1.03.

As to `COC(=O)C1=C(C)N(Cc2cccc(Cl)c2)C(=S)NC1c1cccc(Br)c1` (stereo unspecified), the growth was determined as 0.955.

With `COc1cccc([C@H]2NC(=O)CCC[C@@H](C)[C@@H](c3cccc(OC)c3)NC(=O)CCC[C@H]2C)c1`, the growth came out at 1.11.

Consider `C#CCOC(C[NH3+])CNC(=O)CC1(CNC(=O)c2cccc(/C=N/NS(=O)(=O)c3ccc(C)cc3)c2)CCCCC1` (stereo unspecified), for which the growth was found to be 1.03.

`COc1ccc(N2C(=O)C3=C(C(c4ccccc4)=NCCN3C)C2c2ccc(Br)cc2)cc1` (stereo unspecified): the growth was found to be 0.962.

Regarding `C=CC[C@]12C[C@@]3(O[C@H](C(CC)CC)N=C3C[C@H](c3ccc(OC)cc3)[C@H]1C)N(Cc1ccco1)C2=O`, the growth amounted to 0.951.

`CCc1cccc(C)c1NS(=O)(=O)c1c(C(=O)N2CCCC2)c(C)n(C)c1C`: the growth came out at 0.869.

As to `CC#CCN1C(=O)N(C(C)=O)C(c2ccccc2)C(C(=O)OC)=C1C` (stereo unspecified), the growth worked out at 1.09.

Consider `Cc1cc2c(c(=O)o1)[C@@]1(C(=O)N(c3ccccc3)c3ccccc31)C1=C(CCCC1=O)O2`, for which the growth turned out to be 0.939.

On to `CC(C)CC1=NCCNC2=C1C(c1ccc3c(c1)OCO3)N(Cc1ccccc1)C2=O` (stereo unspecified), for which the growth turned out to be 1.05.

With `COc1ccc2c(c1)[C@]1(C(=O)N2C)C2=C(CCCC2=O)Oc2cc(C)oc(=O)c21`, the growth came out at 0.995.

With `Cc1ccc(C)c(OCCCC(C)(C)COS(=O)(=O)NC(C)(C)C)c1`, the growth is 1.1.

As to `Cn1nc2c(c1-c1ccccc1)C(c1ccc(F)cc1)N(c1ccccc1)C2=O` (stereo unspecified), the growth was 0.946.

Turning to `CC(C)CCc1cc(OCC(=O)NS(=O)(=O)OCCOCc2ccccc2)cc2oc3ccccc3c(=O)c12`, the growth is 0.931.

Regarding `COc1ccc([C@H]2[C@H](C(=O)NCc3ccccc3)[C@@H](C(=O)NCc3ccccc3)[C@@H]2c2ccc(OC)c(OC)c2)cc1OC`, the growth was 1.05.

In the case of `C/C=C(\C)C1=C2CCCCOC2CCCN1S(=O)(=O)c1ccc(C)cc1` (stereo unspecified), the growth was 1.07.

As for `CC(=O)C1=C(C)NC(=O)NC1c1cccc(C)c1` (stereo unspecified), the growth is 1.09.

With `COc1ccccc1Cn1nc2c(c1-c1ccccc1)C(c1ccccc1)NC2=O` (stereo unspecified), the growth amounted to 0.948.

For the compound `CC1=Cc2cc(O)ccc2[C@@H]2C=C(C)C(=O)[C@H]2C1`, the growth is 1.36.

Consider `COc1ccc(Cn2ncc(C)c2Nc2cc(O)cc(O)c2C(=O)N2Cc3ccccc3C2)cc1`, for which the growth stood at 1.12.

For `CN(C)S(=O)(=O)Nc1ccc(C(C)(C)C)cc1`, the growth is 1.06.

As to `COc1ccc(N2C(=O)c3[nH]nc(CC(C)(C)C)c3C2c2ccc(F)cc2)cc1` (stereo unspecified), the growth worked out at 1.04.

With `C=CCC(Nc1ccc(OC)cc1)C1CCCCC1` (stereo unspecified), the growth stood at 0.918.

On to `CC(=O)OC[C@H]1O[C@H](c2ccc(C)cc2)C=C[C@H]1OC(C)=O`, for which the growth was found to be 0.907.

As to `O=C1N[C@@H](c2ccccc2)COCc2cn[nH]c2-c2ccccc2-c2cccc(c2)C(=O)N2C[C@H](O)C[C@@H]12`, the growth was determined as 1.15.

Regarding `COc1ccc(N2C(=O)c3[nH]nc(-c4ccccc4)c3C2c2cccc(C(F)(F)F)c2)cc1` (stereo unspecified), the growth worked out at 0.931.

Turning to `CC(=O)C1=C(C)N(Cc2ccc(F)cc2)C(=S)NC1c1ccccc1Br` (stereo unspecified), the growth turned out to be 1.

In the case of `c1ccc2[nH]c(Cc3c[nH]c4ccccc34)cc2c1`, the growth is 0.722.

Source of the values: the supplement of paper PMC10986608.
